Consider 28 compounds from PubChem BioAssay AID1508623 (National Center for Advancing Translational Sciences (NCATS), 2021).

SMILES strings stand for the structures. Screen size: about 48,000 compounds; about 450 (0.94%) were called active. Not shown: some 19% with an inconclusive outcome. Calls come from the whole dose curve; as a rule, active = well fitted inhibition curve with a large enough effect; inconclusive = small, poorly fitted or top-dose-only effect; inactive = no such curve, though single readings can be large or run the other way. Some of the results follow.

This experiment can be described thus: Primary qHTS for Identification of Small Molecule Inhibitors of Huntingtin Promoter Activity. Note: nearly all actives have a fitted effect of over 50% in size. The following applies: HEK293 HTT promoter firefly luciferase reporter (activity 0% = vehicle and -100% = no light), 24 h; series mostly up to 57.5 µM; activity change, negative = inhibition: at the top concentration. Summed up: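 Luminescence was read after Dual-Glo reagent and a 10 min room-temperature incubation. Values were normalized to vehicle (0% activity) and zero RLU (-100% activity). Reporter HEK293 cells had been exposed to compounds (up to 57.5 uM final) for 24 h.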
For orientation: Quantitative high-throughput screening tests each substance at several concentrations.
For `Cc1ccc(Cn2c(C)c(CNCCCc3ccccc3)c(C(=O)O)c2C)cc1`, the “activity change, negative = inhibition” value is inactive: -15.3%.
On to `CC1CCN(S(=O)(=O)c2ccc3c(c2)CCC(=O)N3CC(=O)Nc2cccc(C#N)c2)CC1`, for which the “activity change, negative = inhibition” value was inactive: -19.7%.
The same measure for `CCCCNC(=O)CSc1nnc(C)c2c(C)n(-c3ccccc3)nc12`: inactive: -15.3%.
As for `Cc1ccc(-c2noc(CNC(=O)c3ccccc3)n2)cc1`, the “activity change, negative = inhibition” value is inactive: -10.6%.
Consider `Cc1ccc(-c2cc3c(n2-c2ccc(C)cc2)CC(C)(C)CC3=O)cc1`, for which the “activity change, negative = inhibition” value was inactive: -3.03%.
The same measure for `Cc1ccc(C2=NN(CC(=O)NCCN(CC(C)C)CC(C)C)C(=O)CC2)cc1`: inactive: -8.26%.
Take `CC(C)NC(=O)C1CCN(c2nc3ccccc3nc2C(F)(F)F)CC1`: the “activity change, negative = inhibition” value is inactive: -16%.
`CCCCCCCCCCCC[N+](C)(C)Cc1ccccc1`: the “activity change, negative = inhibition” value is inactive: 4.37%.
For `O=C(NCCOCCn1c(=O)oc2ccccc21)Nc1ccc(F)cc1`, the “activity change, negative = inhibition” value was inactive: -13.9%.
Take `Cc1nc(N2CCCC2)ncc1C(=O)Nc1ccc(F)cc1F`: the “activity change, negative = inhibition” value is inactive: 11.7%.
The same measure for `COc1ccccc1OCC(=O)Nc1nc(-c2ccc(Br)cc2)ns1`: inactive: 7.43%; for `CC(C)N(Cc1ccccc1)C(=O)CCS(=O)(=O)c1ccc2c(c1)oc(=O)n2C`: inactive: -24.7% [at 11.5 µM].
The same measure for `Cc1cc2c(cc1S(=O)(=O)N(CCN(C)C)Cc1ccco1)OCC(=O)N2`: inactive: 7.38%; for `Cc1ccc(CN2CCc3nc(N4CCN(C)CC4)ncc3C2)s1`: inactive: -10.2%.
`Cc1c(Cl)cccc1NC(=O)Cn1cnc2nc3c(cc2c1=O)CCCC3`: the “activity change, negative = inhibition” value was inactive: -0.625%.
The same measure for `CC(=O)O[C@@H]1CC2C3CCc4cc(OC(=O)c5ccccc5)ccc4C3CCC2(C)[C@H]1OC(C)=O` (stereo partly drawn): inactive: -4.45%; for `CC(C)(C)CC(=O)NC1CC(=O)N(c2ccc3c(c2)OCCO3)C1` (stereo not drawn): inactive: -22.4%; for `O=C(c1ccc2c(c1)N(Cc1ccccc1F)C(=O)c1ccccc1S2=O)N1CCOCC1` (stereo not drawn): inactive: -22.3%.
The same measure for `Cc1ccc2c(c1)cc1c(=O)n(CC(=O)N3CCCCC3)nc(C)n12`: inactive: -6.4%; for `Cc1cccc(N(C)C(=O)CSc2nc3ncccc3o2)c1`: inactive: -2.9%; for `CCCCCN=C(N)NN=Cc1c[nH]c2ccc(OC)cc12`: inactive: -31.2%.
The same measure for `COc1ccc2c(c1)c1c(c(=O)n(-c3ccccc3)c(=O)n1CC(=O)Nc1ccc(C)c(C)c1)n2C`: inactive: -19.2%; for `CN(Cc1ccccc1)S(=O)(=O)c1nnc(NC(=O)c2ccccc2)s1`: inactive: 1.58%; for `O=c1c(O)c(-c2ccc(O)cc2O)oc2cc(O)cc(O)c12`: inactive: 0.812%.
As for `Cc1cccc(N(C)C(=O)CCNS(=O)(=O)c2ccc3c(c2)CCN3C(=O)C2CC2)c1`, the “activity change, negative = inhibition” value was inactive: -16.9%.
The same measure for `Cc1ccc(C)c(CS(=O)(=O)c2cn(CC(=O)N(C(C)C)C(C)C)c3ccccc23)c1`: inactive: -27%.
Consider `COC(=O)CCn1cnc2onc(-c3cc(F)cc(F)c3)c2c1=O`, for which the “activity change, negative = inhibition” value was inactive: -18.6%.
The same measure for `Fc1ccc2ncc3c(-c4ccccc4)n[nH]c3c2c1`: inactive: -25.7%.
